# Several values for one entry are separate records, joined by “and”; a condition that tells them apart may be missing. Equal values may be shown once. Inconclusive means that the source gave no clear call. Such entries were picked first, then a sample of the others. Potencies of inconclusive entries are doubtful fits and often do not repeat. Activity calls are given as the source filed them. The call rests on the fitted dose curve; in most records, active means well fitted inhibition curve with a large enough effect; inconclusive means small, poorly fitted or top-dose-only effect; inactive means flat fitted curve, though single readings scatter.
# Target: Calcium and integrin-binding protein 1 (Homo sapiens) (UniProt Q99828)
# Experiment: Primary qHTS for Identification of Calcium Integrin Binding Protein 1 (CIB1) Competitor (AID 1508620)
# Conditions: CIB1-GST / FITC-alphaIIb peptide fluorescence polarization; series mostly up to 114 µM
# How it was run: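 Fluorescence polarization competition: CIB1-GST (1 uM final) preincubated with compound 15 min at room temperature, then FITC-labeled alphaIIb peptide (100 nM final) added for another 15 min. Polarization read at Ex 480/Em 540.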
# Potency means the concentration at half of the fitted maximal effect; tags describe the fitted curve by direction and shape.
# UniProt Q99828, sequence (Q99828 whole entry, looked up): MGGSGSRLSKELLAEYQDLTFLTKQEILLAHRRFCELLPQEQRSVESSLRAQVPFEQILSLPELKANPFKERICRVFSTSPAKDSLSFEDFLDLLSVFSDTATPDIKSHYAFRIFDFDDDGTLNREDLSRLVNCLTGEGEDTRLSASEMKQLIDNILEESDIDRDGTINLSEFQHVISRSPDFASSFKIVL
row,Structure (SMILES),Potency
1,Cc1cc2c(C(C)C)c(O)c(O)c(C=O)c2c(O)c1-c1c(C)cc2c(C(C)C)c(O)c(O)c(C=O)c2c1O,"inconclusive: 35.5 µM [inhibitor, partial curve] and inconclusive: 30.4 µM [inhibitor, single point]"
2,COc1cccc2c1C(=O)c1c(O)c3c(c(O)c1C2=O)C[C@@](O)(C(=O)CO)C[C@H]3O[C@H]1C[C@H](N)[C@H](O)[C@H](C)O1,"inconclusive: 24.1 µM [inhibitor, partial curve]"
3,CC(C)=CCC1C(=O)N(c2ccccc2)N(c2ccccc2)C1=O,"inconclusive: 50.1 µM [inhibitor, partial curve, poor fit]"
4,Cc1ccc(O)c2ncccc12,"inconclusive: 44.7 µM [inhibitor, partial curve]"
5,CC(=O)N1CCN(c2ccc(OCc3nn(C)c(C)c3-c3cccc4c(CCCOc5cccc6ccccc56)c(C(=O)O)n(Cc5cccnc5)c34)cc2)CC1,"inconclusive: 34.1 µM [inhibitor, partial curve, poor fit]"
6,CC(C)(O)CC(=O)NCCn1ccc2ncnc(Nc3ccc(Oc4cccc(C(F)(F)F)c4)c(Cl)c3)c21,"inconclusive: 100 µM [inhibitor, partial curve, poor fit]"
7,CC[C@@]1(O)C(=O)OCc2c1cc1n(c2=O)Cc2cc3c(CN(C)C)c(O)ccc3nc2-1,active: 28.2 µM and active: 24.1 µM and active: 31.6 µM
8,COc1cccc2c1C(=O)c1c(O)c3c(c(O)c1C2=O)C[C@@](O)(C(=O)CO)C[C@@H]3O[C@H]1C[C@H](N)[C@H](O)[C@H](C)O1,"inconclusive: 7.08 µM [inhibitor, full curve]"
